Measured values from US20240255507A1.

How the values were obtained:
Test in all cases: ELISA, antigen coated, binder 1 µg/mL, chemiluminescence
Conditions in all cases: remark: other sources report otherwise
[1] = target: Hp wild-type RBD (coronavirus Hp strain (Hibecovirus subgenus))
[2] = target: Zaria wild-type RBD (coronavirus Zaria strain (Hibecovirus subgenus))
[3] = target: GCCDC1 wild-type RBD (coronavirus GCCDC1 strain (Nobecovirus subgenus))

B1: REGN10933 (antibody)
heavy: QVQLVESGGGLVKPGGSLRLSCAASGFTFSDYYMSWIRQAPGKGLEWVSYITYSGSTIYYADSVKGRFTISRDNAKSSLYLQMNSLRAEDTAVYYCARDRGTTMVPFDYWGQGTLVTVSS[sequence of human IgG1 constant region not given]
light: DIQMTQSPSSLSASVGDRVTITCQASQDITNYLNWYQQKPGKAPKLLIYAASNLETGVPSRFSGSGSGTDFTFTISGLQPEDIATYYCQQYDNLPLTFGGGTKVEIKRTVAAPSVFIFPPSDEQLKSGTASVVCLLNNFYPREAKVQWKVDNALQSGNSQESVTEQDSKDSTYSLSSTLTLSKADYEKHKVYACEVTHQGLSSPVTKSFNRGEC
[1]
  signal intensity: 60
[2]
  signal intensity: 70

B2: REGN10987 (antibody)
heavy: QVQLVESGGGVVQPGRSLRLSCAASGFTFSNYAMYWVRQAPGKGLEWVAVISYDGSNKYYADSVKGRFTISRDNSKNTLYLQMNSLRTEDTAVYYCASGSDYGDYLLVYWGQGTLVTVSS[sequence of human IgG1 constant region not given]
light: QSALTQPASVSGSPGQSITISCTGTSSDVGGYNYVSWYQQHPGKAPKLMIYDVSKRPSGVSNRFSGSKSGNTASLTISGLQSEDEADYYCNSLTSISTWVFGGGTKLTVLRTVAAPSVFIFPPSDEQLKSGTASVVCLLNNFYPREAKVQWKVDNALQSGNSQESVTEQDSKDSTYSLSSTLTLSKADYEKHKVYACEVTHQGLSSPVTKSFNRGEC
[3]
  signal intensity: 70
[2]
  signal intensity: 110
